The campaign covered roughly 2,200 compounds. Fewer than 10 were called active. The list shows a part of the results. Entries without a call are filed as inconclusive in the source.

This test addresses GTPase KRas (Homo sapiens) (UniProt P01116). Put plainly: Covalent labelling of cysteine mutants by fragments, read by mass spectrometry (AID 2202238). More on the design: protein at 5 µM with 500 µM competing thiol for 1.5 h. The following applies: KRAS G12D cysteine mutants, disulfide tethering, MALDI-TOF labeling; stronger effect = higher value; H27C mutant labeling; fragment at 500 µM.
Chain of UniProt P01116 (P01116 whole entry, looked up, the tested form may be a part): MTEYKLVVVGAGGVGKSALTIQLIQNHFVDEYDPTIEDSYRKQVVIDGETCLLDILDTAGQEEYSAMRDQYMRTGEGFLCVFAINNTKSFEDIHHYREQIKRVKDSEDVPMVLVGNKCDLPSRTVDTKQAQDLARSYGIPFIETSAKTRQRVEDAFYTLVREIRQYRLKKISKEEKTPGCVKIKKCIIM
Take `Cn1cc(C(C(=O)NCCS)N2CCOCC2)cn1` (stereo unspecified): the percent labeling stood at 29.4%. The figure for `O=C(NCCS)c1ccnc(OC2CCOC2)c1` (stereo unspecified) is 37.7%; for `Cc1nc(-c2cc3c(s2)CCN(C(=O)CCS)C3)cs1` it is 33.8%. `O=C(NCCS)c1ccnc(-c2ccc(Cl)cc2)n1` displayed a percent labeling of 31.3%.

`CCc1cc(=O)c2cc(NC(=O)CCS)ccc2[nH]1` had a percent labeling of 37%. For `Cc1ccc(-c2c[nH]cc2C(=O)NCCS)s1`, the percent labeling worked out at 3.9%. `O=C(CCS)NCc1cc2n(n1)CCCO2` registered a percent labeling of 33.9%. The molecule `Cn1cc(S(=O)(=O)N2CCOCC2)cc1C(=O)NCCNC(=O)CCS` showed a percent labeling of 27.2%. In turn, `O=C(NCCS)c1cccc(OCc2cn3ccccc3n2)c1` registered a percent labeling of 30.7%. Regarding `CC(C)c1n[nH]c(CC2CCN(C(=O)CCS)CC2)n1`, the percent labeling was 40.6%. The figure for `N#Cc1cccc(OCc2ccoc2C(=O)NCCS)c1` is 20.9%.

In the case of `O=C(CCS)NCc1nccn1CC(F)(F)F`, the percent labeling was 28.5%. The value for `Cc1ccnc(-c2n[nH]c(C(C)NC(=O)CCS)n2)c1` (stereo unspecified) was 36%; that for `O=C(COc1ccc2ccccc2c1)NCCS` was 18.1%; that for `O=C(CCS)NC1(c2ccc(Br)s2)CC1` was 50.3%. The figure for `COc1ccc2ccccc2c1CNC(=O)CCS` is 34.9%; for `CC(=O)Nc1ccc(-c2csc(NC(=O)CCS)n2)cc1` it is 35.8%. As to `O=C(NCCS)c1ccc(NC(=O)c2ccc(=O)[nH]c2)cc1`, the percent labeling is 34.5%.

On to `CN(CC(=O)NCc1cccs1)C(=O)CCS`, for which the percent labeling stood at 32.2%. The value for `O=C(CCS)NCCc1cn2ccccc2n1` was 29.9%. In turn, `O=C(CCS)NCc1cc(Cl)c2c(c1)OCO2` showed a percent labeling of 41.9%. The figure for `Cn1cc(-c2nn(C)cc2C(=O)NCCS)cn1` is 32.3%; for `Cn1c(C(=O)NCCS)cc2cc(C(F)(F)F)ccc21` it is 20.2%; for `O=C(NCCS)c1ccc(N2CCCC2)c(F)c1` it is 25.2%. The figure for `Cc1ccc(OCc2ccc(C(=O)NCCS)o2)cc1` is 30.2%. `Cc1cnc(C(=O)NCCS)cn1` gave a percent labeling of 38.5%. The figure for `COc1ccc(Cl)cc1C(=O)N1CCCC1C(=O)NCCS` (stereo unspecified) is 33.6%; for `COCCn1c(CCN(C)C(=O)CCS)nc2ccccc21` it is 38%.

Regarding `O=C(NCCS)C1CCCC2CC(O)CCC21` (stereo unspecified), the percent labeling stood at 33.1%. The molecule `CCC(=O)Nc1ccc(OC)cc1NC(=O)CCS` came in with a percent labeling of 35.9%.

`O=C(NCCS)C1CCCN1Cc1ccc(Cl)cc1` (stereo unspecified) displayed a percent labeling of 35.4%. `O=C(CNC(=O)COc1ccccc1)NCCS` showed a percent labeling of 28.8%.

`CN(C(=O)CCS)C1CCC(NC(=O)OC(C)(C)C)CC1` (stereo unspecified) displayed a percent labeling of 42.6%. `O=C(NCCS)c1ccn(-c2ncc(C(F)(F)F)cc2Cl)n1`: the percent labeling came out at 25.6%. `Cc1cc2c(N3CC(NC(=O)CCS)C3)nccn2n1` gave a percent labeling of 45.7%. The molecule `CN1C(=O)C(C)(C)c2cc(C(=O)NCCS)ccc21` yielded a percent labeling of 41.9%. The figure for `CC(C)n1nc(NC(=O)CCS)cc1CO` is 38.8%; for `Cn1nc2cc(Br)ccc2c1C(=O)NCCS` it is 39.1%; for `CN1CCOCC1c1n[nH]c(CNC(=O)CCS)n1` (stereo unspecified) it is 33.9%. The figure for `COc1cc(-n2cnnn2)c(Cl)cc1C(=O)NCCS` is 17.8%; for `Cc1ccc2nc(C)c(C(=O)NCCS)cc2c1` it is 30%. Molecule `CC(C)(C(=O)NCCS)c1cccc(C(F)(F)F)c1` showed a percent labeling of 32.2%. In turn, `O=C(CCS)Nc1nnc(Cc2ccc(C(F)(F)F)cc2)s1` registered a percent labeling of 7.8%. The value for `O=C(CCS)NCc1cc(C2CCC2)n[nH]1` was 36%; that for `N#Cc1cnn(-c2ccc(C(=O)NCCS)cc2)c1N` was 36.9%; that for `COc1cccc(OCCNC(=O)CCS)c1O` was 29.8%. The figure for `CCC(Cc1cccc(Br)c1)C(=O)NCCS` (stereo unspecified) is 25.5%. The value for `O=C(CCS)Nc1cccc(OC2CCCCC2)c1` was 22.1%; that for `CCOC(=O)c1cnc(CNC(=O)CCS)nc1C(F)F` was 31.9%; that for `O=C(CCCNC(=O)c1ccc(Cl)cc1)NCCS` was 29.3%.

Consider `CCOc1cc(C(=O)N(C)C)ccc1NC(=O)CCS`, for which the percent labeling is 44.1%. The value for `CC(C(=O)NCCS)c1ccc2c(c1)OCCO2` (stereo unspecified) was 40.2%; that for `CCCOc1ccc(C(F)(F)F)cc1NC(=O)CCS` was 41.2%; that for `CC(C)c1ccc2cc(C(=O)NCCS)[nH]c2c1` was 10.6%. The value for `NC(=O)c1cc(CNC(=O)CCS)n2c1COCC2` was 22.9%. The figure for `CC(C(=O)NCCS)n1nnc(-c2ccccc2)n1` (stereo unspecified) is 21.1%; for `Cc1nn(C)c2[nH]c(=O)c(CCC(=O)NCCS)c(C)c12` it is 42.1%; for `COc1cccc(COC(C)C(=O)NCCS)c1` (stereo unspecified) it is 31.8%. Regarding `CCOc1ccc(NC(=O)CCS)cc1CN(CC)CC`, the percent labeling came out at 59.4%.

`COc1ccc(C(=O)NCCS)nc1` came in with a percent labeling of 54.2%. The value for `COc1cnc(C(F)(F)F)cc1C(=O)NCCS` was 38.8%; that for `Cc1nn(CC(C)C)c(C)c1CCC(=O)NCCS` was 30.3%; that for `O=C(CCS)Nc1ccc(OCC2CC2)cc1F` was 35.6%. The value for `O=C(NCCS)C1CCN(C(=O)OCc2ccccc2)CC1` was 35.1%. The value for `O=C(NCCS)[C@@H]1C[C@H]1c1ccccn1` was 43%; that for `O=C(NCCS)c1ccc(COc2ccccc2)cc1` was 23.1%. In the case of `O=C(CN1C(=O)COc2ccc(Cl)cc21)NCCS`, the percent labeling amounted to 41.1%.

`O=C(CCS)NCc1ccc(C(F)F)nc1` gave a percent labeling of 33.3%. In the case of `COc1ccc(OC)c(-c2cc(C(=O)NCCS)[nH]n2)c1`, the percent labeling turned out to be 30.4%. Turning to `Cc1csc(=O)n1CC(=O)NCCS`, the percent labeling came to 37.4%. With `O=C(CN1C(=O)C2CC=CCC2C1=O)NCCS` (stereo unspecified), the percent labeling came to 22.4%.

Values taken from PubChem BioAssay AID2202238 (Ras Initiative Chemistry Research Team, Frederick National …, 2025).
